For 27 variants, nonsense suppression results are on record in the RNAGym collection of RNA variant scans (doi:10.1101/gad.245936.114).

Variants at the floor of the assay are shown more often than the library holds them. A value given as a limit tells only on which side of the number the result lay.

First the molecules themselves.
B1: tRNA (parent)
chain: CUCUCGGUAGCCAAGUUGGUUUAAGGCGCAAGACUUUAAUUUAUCACUACGAAAUCUUGAGAUCGGGCGUUCGACUCGCCCCCGGGAGAUUUUUUCCUCGAGCAA

In the series the parent is B1. The series is described as follows: nonsense suppression (GFP-seq) (ratio to wild type); higher = more function; SUP4oc tRNA, yeast GFP reporter sort-seq. The essentials:
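Nonsense suppression (GFPSEQ) is the median GFP/RFP ratio of each sorting bin, weighted by the variant's estimated share of cells in that bin and expressed relative to the unmutated parent tRNA. Yeast strains carried genome-integrated variants of an ochre-suppressor tRNA from a library with ~3% random mutations, plus a galactose-driven GFP ochre reporter and RFP, and were grown in raffinose/galactose medium containing 80 mg/L adenine. Cells were sorted into GFP/RFP bins, each bin was Illumina-sequenced (phred ≥30), and variants were kept only with ≥100 reads and ≥30 cells.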
On to CUUUCGGUAGCCAAGUUGGUUUAAGACGCAAGGCUUUAAUUUAUCACUACGAAAUCUUGAGAUCGGGCGUUCGACACACCCCCGGGAGAUUUUUUCCUCGAGCAA, for which the nonsense suppression is not above 0.026. Take CUCGCGGUUGCCAAGUGGGUUUAAGGCGCAAGACUUUAAUUUAUCACUACGAAAUCUUGAGAUCAGGCGUUCAACUCGCCCCCGGGAGAUUUUUUCCUCGAGCAA: the nonsense suppression is not above 0.026.

In the case of CUCCCGGUUGCCAAGUUGGUUUAAGGCGCAAGACUUUAAUUUAUCACUACGAAAUCUUGAGAUCGGGCGUUCGACUCGCCCCCGGGAGAUUUUUUCCUCGAGCAA, the nonsense suppression came out at 1.07. With UUCUCGGUAGCCAAGUUGGUUAAAGGCGCAAGACCUUAAUUUAUCACUACGAAGUCUUGAAAGCGGGCGCUCGACUCGCCCCCAGACGAUUUUUUCCUCGAGCAA, the nonsense suppression was not above 0.026.

In the case of CUCUCGGUAGCCAAGUUGGUUUAAGGCGCCAGACUUUAAUUUAUCACUACGAAAUCUUGAGAUCGGGCGUUCGAAUCGCCCCCGGGAGAUUUUUUCCUCGAGCAA, the nonsense suppression is not above 0.026. Then CUCUCGGAGGCCAAGUUGGUUUAAGGCGCAAGACUUUAAUUUAUCACUACGAAAUGUUGAGAUCGGGCGUUCGACUCGCCCCCGGGAGAUUUUUUCCUCGAGCAA, with not above 0.026; and CUCUCGGUGGCCAAGUUGGUUUAAAGCGCAAGACUUUAAUUUAUCACUACGAAAUCUUGAGAUCGGGCGUUCGACUCGCCCCGGUGAGAUUUUUUCCUCGAGCAA, with not above 0.026. As for CUCUCGGUAGCCUAGUUGGUUUAUGGCGCAAGACUUUAAUUUAUCACUACGAAAUCUUGAGAUCGGCCGUUCGACUCGCCCCCGCGAUAUUUUUUCCUCGAGCAA, the nonsense suppression was not above 0.026. For CUCUCGGUAUCCAAGUUGGUUUAAGGCGCAAGACUUUAAUUUAUCACUACGAAAUCUUGAGAUCGGGCGUUAGACCCGCCCCCAGGAGAUUUUUUCCUCGAGCAA the value was not above 0.026; for CUCUCGGUAGCAAAGUUGGUUUAAGGCGCAAGACUUUAAUUUAUCACUACGAAAGCUUGAGAUCGGGCGUUCGACUCGCCCCCGGGAGAUUUUUUCCUCGAGCAA, not above 0.026; for CUCUCGGUAGCCAAGUUGGUUUAAGGCGCAAGACUUUAAUUUAUCACUACGAAAUCUUGAGAUCUGGCGUUCGACUCGCCCUCGGGAGAUUUUUUCCUCGAGCAA, not above 0.026.

Regarding CUCUCGGAAGCCAAGUUGGUUUAAGGCGCAAGACUUUAAUUUAUCACUACGAAAUCUUAAAAUCGGGCGUUCGACUCGCCCCCGGGAGAUUUUUUCCUCGAGCAA, the nonsense suppression was not above 0.026.

Regarding CUCUCGGUAGCCAAGGUGGUAUAAGGCGCAAGACGUUAAUUUAUCACUACGAAAUCUUGAGAUCGGGCGUUCGACUCGCCCCCGGGAGAUUUUUUCCUCGAGCAA, the nonsense suppression was not above 0.026. For CUCUCGGUAGCCAAGGUGGUUUAAGGUGCAAGACUUUAAUUUAUCACUACGAAAUCUUGAGAUCGCGCGUUCGACUCGCCCCCGGGAGAUUUUUUCCUCGAGCAA the value was not above 0.026; for CUCUCGGUAACCAAGUUGGUUUAAGGCGCCAGACUUUAAUUUAUCACUACGAAAUCUUGAGAUCGGGCGUUCGACUCGCCACCGGGAGAUUUUUUCCUCGAGCAA, not above 0.026; for CUCUCGGUCGCCAAGUUGGUUUAGGGCGCAAGACUUUAAUUUAUCACUACGAAAUCUUGAGAUCGGGCGUUCGACUCGCCCCCGGGAGAUUUUUUCCUCGAGCAA, not above 0.026. In the case of CUCUCGAUAGCCAAGUUGGUUUAAGGCGCAAGACUUUAAUUUAUCACUACGAAAUCUUGAGAUCGGGCGUUCGACUCGCCGCCGGGAGAUUUUUUCCUCGAGCAA, the nonsense suppression was not above 0.026. Turning to CUCUCGGUAGCCAAGUUGGUUUAAGGCCCAAGAUUUUAAUUUAUCACUACGAAAUCUUGAGAUCGGGCGUUCGACUCGCCCCCGGGAGAUUUUUUCCUCGAGCAA, the nonsense suppression is not above 0.026. For the variant CUCUAGGUAGCCAAGUUGGUUUAGGGCGCAAGACUUUAAUUUAUCACUACGAAAUCUUGAGAUCGGGCGUUCGACUCGCCCCGGGGAGAUUUUUUCCUCGAGCAA, the nonsense suppression was not above 0.026.

CUCUCGGUAGCCAAGUUGGGUUAAGGCGCAAGGCUUUAAUUUAUCACUACGAAAUCUUGAGAUCGGGCGUUCGACUCGCCCCCGGGAGAUUUUUUCCUCGAGCAA: the nonsense suppression was determined as 0.18. As for CUCUCGGUAGCCAAGUUGGCUUAAGGCGCAAGACUUUAAUUUAUCACUACGAAAUCUUGAGGUCGGGCGUUCGACUCGCCCCCGGGAGAUUUUUUCCUCGAGCAA, the nonsense suppression is not above 0.026. For CUCUCGGUCGCCAAGUUGGUUUAAGGCGCAAGACUUUAAUUUAUCACUACGAAAUCUUGAGAUCGGACGUUCGACUCGCCCCCGGGAGAUUUUUUCCUCGAGCAA the value was not above 0.026; for CUCUCGGUAGCCCAGUUGGUUUAAGGCGCAAGACUUUAAUUUAUCACUACGAAAUCUGGAGAUCGAGCGUUCGUCUCGCCCCCGGCAGAUUUUUUCCUCGAGCAA, not above 0.026. Then CUCUCGGUAGACAAGUAGGUUUAAGUCGCAAGACUUUAAUUUAUCACUACGAAAUCUUGAGAUCGGGCGUUCGACUCGCCCCCGGGAGAUUUUUUCCUCGAGCAA, with not above 0.026. Then CUUUCGGUAGCCAAGUAGGUUUUAGGCGCAAGACUUUAAUUUAUCACUACGAAAUCUUGAGAUCGGGCGUUCGACUCGCCCCCGGGAGAUUUUUUCCUCGAGCAA, with not above 0.026; and CUCUCGGUAGCCAAGUUGGUUAAAGGCGCAAGACUUUAAUUUAUCACUACGAAAUCUUGAGAUCGGGCGUUCGACUCGCCCCCGGGAGAUUUUUUCCUCGAGCAA, with 1.13. In the case of CUCUCUGUAGCCAAGUUGGUUUAAGGCGCAAGACGUUAAUUUAUCACUACGAAAUCUUGAGGUCGGGCGUUCGACUCGCCCCCGGGAGAUUUUUUCCUCGAGCAA, the nonsense suppression is not above 0.026.
